Data taken from article PMC4336329 (PLoS ONE, 2015).
Screen size: about 310,000 compounds; about 2,200 (0.71%) showed an effect of 50% or more. The effect is printed as a negative number. The list shows a part of the results.

target: human ether-à-go-go-related gene (hERG) potassium channel (human, UniProt Q12809); test: primary screen, population patch clamp on CHO cells stably expressing hERG
Sequence (Q12809 whole entry, looked up): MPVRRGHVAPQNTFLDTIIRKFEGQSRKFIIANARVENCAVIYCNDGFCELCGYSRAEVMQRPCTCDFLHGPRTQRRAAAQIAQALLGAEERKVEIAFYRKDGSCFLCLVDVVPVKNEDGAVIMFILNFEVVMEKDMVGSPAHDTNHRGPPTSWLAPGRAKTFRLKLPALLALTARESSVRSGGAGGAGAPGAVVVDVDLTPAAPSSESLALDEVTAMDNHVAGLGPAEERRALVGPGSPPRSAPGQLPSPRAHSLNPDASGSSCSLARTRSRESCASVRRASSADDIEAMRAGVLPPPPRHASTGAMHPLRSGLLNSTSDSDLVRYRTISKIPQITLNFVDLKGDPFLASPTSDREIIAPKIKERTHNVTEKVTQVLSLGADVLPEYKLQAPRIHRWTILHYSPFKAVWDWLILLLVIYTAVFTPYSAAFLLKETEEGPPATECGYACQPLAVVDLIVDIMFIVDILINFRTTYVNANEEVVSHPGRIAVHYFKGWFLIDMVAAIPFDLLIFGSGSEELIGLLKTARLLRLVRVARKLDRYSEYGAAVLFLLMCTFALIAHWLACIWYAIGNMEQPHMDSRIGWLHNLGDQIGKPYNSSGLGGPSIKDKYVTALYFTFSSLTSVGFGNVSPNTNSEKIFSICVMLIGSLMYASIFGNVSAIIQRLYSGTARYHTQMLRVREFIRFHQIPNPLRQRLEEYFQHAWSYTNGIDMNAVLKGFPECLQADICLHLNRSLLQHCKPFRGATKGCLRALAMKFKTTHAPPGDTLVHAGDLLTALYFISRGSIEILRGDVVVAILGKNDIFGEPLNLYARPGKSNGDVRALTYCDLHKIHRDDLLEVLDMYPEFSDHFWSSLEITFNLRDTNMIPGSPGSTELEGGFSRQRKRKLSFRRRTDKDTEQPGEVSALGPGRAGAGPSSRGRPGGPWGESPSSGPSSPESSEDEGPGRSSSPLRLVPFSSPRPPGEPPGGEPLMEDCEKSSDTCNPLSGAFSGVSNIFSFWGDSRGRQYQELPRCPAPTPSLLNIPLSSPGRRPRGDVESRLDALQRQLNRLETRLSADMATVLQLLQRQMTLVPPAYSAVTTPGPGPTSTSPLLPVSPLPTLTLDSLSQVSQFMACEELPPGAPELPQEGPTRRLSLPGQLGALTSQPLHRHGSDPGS

Structure (SMILES)	hERG current change (%, negative = inhibition) at 1uM [%]
CN(C)c1ccc(/C=C2\NC(=S)N(Cc3ccccc3)C2=O)cc1	11.7
O=C(CSc1ncnc2c1oc1ccccc12)N1CCN(c2ccccc2)CC1	5.87
O=C(COc1ccc(S(=O)(=O)NC2CCCCC2)cc1Cl)NCc1ccc2c(c1)OCO2	10.3
CC/C(=N\NC(=O)c1ccc2c(c1)OCO2)c1ccccc1	13.8
CCOC(=O)c1cc(CC)sc1/N=C/C1=C(O)CCCC1=O	4
Cc1ccc(C2=NN(C(=O)CNCCO)C(c3cccs3)C2)cc1 (stereo not shown)	7.04
N#C/C(=C\c1cccnc1)c1ccc(Br)cc1	-1.9
Cl.c1cc2n(c1)-c1c(ccc3c1OCO3)CNC2c1ccc2c(c1)OCO2 (stereo not shown)	0.451
Cn1c(SCC(=O)NNC(=O)c2ccc(Cl)cc2)nnc1-c1cccnc1	21.8
COC(=O)[C@@H](NC(=O)CCc1nnc(-c2ccsc2)o1)C(C)C	9.32
Cc1oc(-c2cccs2)nc1CN1CCC(c2ccccc2)CC1	-23.4
Cc1nc(CCNC(=O)CC2C(=O)NCCN2CC(C)(C)C)nc2c1CCC2 (stereo not shown)	2.12
COc1ccc(CCC(=O)Nc2cc3c4c(c2)CC(=O)N4CCC3)cc1	-3.39
Cc1noc(C)c1CSCC(=O)Oc1ccc(N(C)S(=O)(=O)c2ccccc2)cc1	9.9
O=C1N=C(N2C=CC(=C3C=CNC=C3)C=C2)/C(=C/N=NC(=O)c2ccccc2O)S1	11.5
COc1ccccc1-c1cnn2c(NCCc3ccccc3)cc(C)nc12	15
Cc1cc(C)cc(N(C(=O)CNC(=O)c2ccco2)C(C(=O)NC2CCCCC2)c2ccncc2)c1 (stereo not shown)	1.38
CC(=O)N[C@H]1[C@H]([C@H](O)[C@H](O)CO)OC(C(=O)O)=C[C@@H]1O	4.04
Cc1cc(NC(=O)C(C)SCC(=O)Nc2ccccc2OC(F)F)no1 (stereo not shown)	2.9
O=C1CCC(=O)N1CN(Cc1ccco1)CN1C(=O)CCC1=O	11
CC(=O)CC(=O)C1C(=O)N(C)C(=O)N(C)C1=O	10.1
O=C(Nc1cc([N+](=O)[O-])ccc1N1CCOCC1)c1ccco1	-5.22
CCS(=O)(=O)n1nc(-c2ccc(OC)cc2)nc1N	18.8

Structure (SMILES)	hERG current change (%, negative = inhibition) at 1uM [%]
COc1ccc(NC(=O)Cn2nc(C(F)(F)F)c3c2CCCC3)c(OC)c1	16.9
Cc1nn2c(=S)[nH]nc2[nH]c1=O	14.3
COc1cccc(C(=O)Nc2nnc(S(=O)(=O)N3CCCC3)s2)c1	14.6
COc1ccccc1Nc1c2ccccc2nc2ccccc12	-18.4
OCC1(Cc2ccc(F)cc2F)CCCN(CCCc2ccccc2)C1 (stereo not shown)	-56.1
O=C(COc1ccc(Cl)cc1Cl)Nc1nc2n(n1)C(c1ccccc1)CC(=O)N2 (stereo not shown)	1.52
CC(C)[C@H](NC(=O)N1CCn2c1nc1ccccc12)C(=O)N1CCCCC1	15.8
CC(C)(Oc1ccc(Cl)cc1)C(=O)NCCCn1ccnc1	1.77
S=c1nc[nH]c2c1sc1nc(-c3ccccc3)c3c(c12)CCCC3	-1.25
O=C1CSC(c2cn(-c3ccccc3)nc2-c2ccccc2)N1Cc1ccco1 (stereo not shown)	4.68
CC1=C(C(=O)OCCOC(C)C)C(c2cc3c(cc2Br)OCO3)C2=C(CCCC2=O)N1 (stereo not shown)	7.15
O=C(Nc1cccc(C(F)(F)F)c1)C1CCCCC1	4.96
O=C(CCCCCn1c(=O)[nH]c2ccsc2c1=O)NCc1ccc(F)cc1	15.9
COc1cccc(CN2CCN(CCc3ccccc3)C(CCO)C2)c1OC (stereo not shown)	-3.13
CCn1c(Cc2ccccc2)nnc1SCC(=O)Nc1ccc(S(N)(=O)=O)cc1	6.94
O=C(CN1C(=O)C2CCCCC2C1=O)OCc1nnc(-c2ccccc2)o1 (stereo not shown)	8.04
O=C(Nc1ccc2c(c1)OCO2)C1CC(c2ccc(Cl)cc2)=NO1 (stereo not shown)	4.23
NNC(=O)CCN1CCN(Cc2ccccc2)CC1	6.92
Cc1ccc(S(=O)(=O)N(Cc2cc3ccccc3[nH]c2=O)CC2CCCO2)cc1 (stereo not shown)	11.7
COc1ccc(-c2csc(NC(=O)C3=NN(c4ccccc4)C(=O)CC3)n2)cc1	7.49
Clc1cc(NCc2cccs2)ccc1N1CCOCC1	13.1
CCC(C)NCCOCCOc1ccc(C)cc1Br.O=C(O)C(=O)O (stereo not shown)	2.63
Cc1ccccc1OCC(=O)Nc1ccccc1NC(=O)c1ccco1	15

Structure (SMILES)	hERG current change (%, negative = inhibition) at 1uM [%]
Cc1ccc(NC(=O)Nc2cccc(C(F)(F)F)c2)nc1	18.5
Cc1ccc(NC(=O)c2c(C)nc(Nc3nc4ccccc4o3)nc2C)cc1	6.99
COC(=O)c1ccccc1OCCCN(C)C.O=C(O)C(=O)O	6.69
Cc1ccccc1-n1nc2c(c1NC(=O)C1CCCC1)CS(=O)(=O)C2	7.54
CC(=O)c1ccc(NC(=O)C(C)OC(=O)CCCN=C2NS(=O)(=O)c3ccccc32)cc1 (stereo not shown)	21.5
Cc1cccc(/C(N)=N/OC(=O)N2c3ccccc3Sc3ccccc32)c1	8.73
O=C(CCC(=O)OCc1ccc(C(=O)Oc2ccc(Cl)cc2)cc1)Nc1ccccc1	6.63
O=C(NCCc1c[nH]c2ccccc12)OCCCCOC(=O)NCCc1c[nH]c2ccccc12	15.1
COc1ccc2ccccc2c1C(O)c1nccn1C (stereo not shown)	-7.69
COc1ccc2c(CC(=O)NCc3cccs3)coc2c1	2.68
Nn1c(SCC(=O)N2CCCc3ccccc32)nnc1-c1ccc(Cl)cc1	10.5
CC(=O)Nc1ccc2c(c1)nc(C)n2Cc1ccccc1	9.44
O=C(c1ccc(C(F)(F)F)cc1)N1CCCCC1	-4.21
O=P(O)(O)c1ccccc1OCCOCCOc1ccccc1P(=O)(O)O	9.78
C=CCn1c(O)c(C(CC)=Nc2cccc(C(F)(F)F)c2)c(=O)[nH]c1=O	10.1
COc1ccc(S(=O)(=O)N2CCCC(C(=O)O)C2)cc1 (stereo not shown)	-0.0757
O=C(COC(=O)CNC(=O)c1ccc(Cl)cc1Cl)NNC(=O)c1ccccc1	1.9
O=C(Cn1nnc2ccccc21)c1ccccc1	0.747
Cc1cccc(NC(=O)c2cc3ccccc3c(=O)o2)n1	10.9
COc1ccc2nc(C)cc(SCC(=O)Nc3c(C)cc(C)cc3C)c2c1	3.56
CC(C)CC(=O)Nc1cccc(-c2nc3ccccc3[nH]2)c1	14.8
Cc1ccc(Oc2ccc(S(=O)(=O)Nc3ccc(C(=O)O)cc3)cc2)cc1	2.61
Cc1cc(-c2ccccc2)nc(Oc2cccc(C(F)(F)F)c2)c1S(C)(=O)=O	6.46

Structure (SMILES)	hERG current change (%, negative = inhibition) at 1uM [%]
CSc1ccccc1NC(=O)CSc1nnnn1-c1ccccc1SC	4.36
Cc1ccc(/C=C/c2ccc3cccc(O)c3n2)s1	19.5
COc1ccc2nc(N(CCN(C)C)C(=O)c3ccc(C(=O)c4ccccc4)cc3)sc2c1.Cl	-9.47
Clc1cccc(Cl)c1C1Nc2cccc3cccc(c23)N1	7.63
COc1ccc(CCn2c(N)cc(=O)[nH]c2=O)cc1OC	-0.2
Cc1csc(NC(=O)CCCNC(=O)c2ccc(Cl)cc2)n1	0.256
O=C(CNC(=O)c1ccco1)OCC(=O)c1ccc2ccccc2c1	7.52
CCN(CC)c1ccc(C(NC(C)=O)NC(C)=O)cc1	-1.26
Cc1ccc(CCc2nnc(SCC(=O)Nc3cc(Cl)ccc3Cl)n2-c2ccccc2)o1	9.1
CCOc1ccccc1NC(=O)CSc1nc2c(c(=O)n1C)SC(C)C2 (stereo not shown)	-2.14
O=C(NC(Cc1ccccc1)c1ccc2c(c1)OCCCO2)c1ccccc1 (stereo not shown)	12.2
COc1ccc(-n2c(=O)c3ccccc3n(CC(=O)NCC3CCCO3)c2=O)cc1 (stereo not shown)	15
CN(C)c1ccc(C(=O)OCc2ccc(Br)cc2)cc1	12.9
CN1CCCN(S(=O)(=O)c2cccc(C#N)c2)CC1.Cl	7.53
O=C(OCc1cc(Cl)ccc1OC(F)F)c1cccnc1	8.24
CCOC(=O)c1cc(C#N)c(SC)nc1C	7.27
CC(C)(C)S(=O)(=O)/C(C#N)=N/Nc1ccc(S(N)(=O)=O)cc1	1.18
COc1ccc(NC2=Nc3ccccc3CC2)cc1	-1.5
COc1ccc(CCNc2ncnc3sccc23)cc1OC	9.31
COc1ccc(CC(=O)Nc2cc(C)on2)cc1OC	4.43
NS(=O)(=O)Oc1ccccc1	12
COc1ccc(NC(=O)C2CCCN2C(=O)NC2CCCCC2)cc1 (stereo not shown)	-0.24
